From patent publication US20040205843A1 (NORTH CAROLINA STATE UNIVERSITY, published 2004)

Target: T1, TGMV AL1, wild type, full length, untagged (tomato golden mosaic virus (TGMV), UniProt P03567 1-352)
T1 construct: also called Rep; authentic AL1
T1 sequence: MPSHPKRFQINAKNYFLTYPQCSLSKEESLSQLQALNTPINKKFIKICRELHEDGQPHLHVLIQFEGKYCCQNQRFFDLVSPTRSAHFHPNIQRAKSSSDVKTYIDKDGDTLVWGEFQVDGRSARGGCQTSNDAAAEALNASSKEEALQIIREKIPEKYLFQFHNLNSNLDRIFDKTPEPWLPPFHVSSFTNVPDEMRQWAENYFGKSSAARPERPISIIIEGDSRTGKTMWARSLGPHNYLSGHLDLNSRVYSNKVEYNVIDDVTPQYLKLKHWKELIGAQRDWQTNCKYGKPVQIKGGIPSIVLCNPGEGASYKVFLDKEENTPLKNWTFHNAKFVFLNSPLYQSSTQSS
Assay: GST co-purification on glutathione resin from insect cells, immunoblot

B1: GST alone (other)
chain: not shown
B1: no binding.
